Our source for the ETS1 binding intensity values is the supplement of paper PMC10681739.

The full ranking holds about 2,700 sequences; the median of “arbitrary fluorescence units” is about 4,100, and the highest 2% start at about 54,000. Some of the results follow.

The target in the experiment is T1, ETS1 (UniProt P14921).
T1 sequence: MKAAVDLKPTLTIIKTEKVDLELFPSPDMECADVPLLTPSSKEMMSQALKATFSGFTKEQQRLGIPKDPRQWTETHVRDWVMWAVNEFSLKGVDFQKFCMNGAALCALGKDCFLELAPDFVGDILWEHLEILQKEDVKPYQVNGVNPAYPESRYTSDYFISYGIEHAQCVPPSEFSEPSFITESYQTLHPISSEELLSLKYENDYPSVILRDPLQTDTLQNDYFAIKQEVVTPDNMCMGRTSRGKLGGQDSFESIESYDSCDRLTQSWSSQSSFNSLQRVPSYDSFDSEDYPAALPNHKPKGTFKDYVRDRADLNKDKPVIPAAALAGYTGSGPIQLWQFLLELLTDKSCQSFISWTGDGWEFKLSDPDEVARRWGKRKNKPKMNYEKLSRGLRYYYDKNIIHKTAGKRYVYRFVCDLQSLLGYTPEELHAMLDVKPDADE
The experiment is described as follows: ETS1 binding intensity (PBM fluorescence) (arbitrary fluorescence units); higher = stronger binding. Particulars: ETS1 concentration 10 nM. The procedure: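 gcPBM on wild-type 36-bp genomic probes with two neighbouring ETS1 sites (4-24 bp apart). Recombinant human ETS1 (10 nM) was detected with anti-ETS1 antibody fluorescence. Values are medians over 3 replicate spots. The probes sit in constant array flanks that are not printed.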
AGGCAGGAAGTACCGCCTGATGCTCAGCTTCCGCTG displayed an ETS1 binding intensity of 9880.
Turning to CGCAGCCTCCTGACTTCCCTTCCTGTCCTCAGCGGC, the ETS1 binding intensity was 3470.
GCATACAAGCCACATCCTCCTTCCTGTGATAACAAG came in with an ETS1 binding intensity of 7100.
AAGTGACATCCGAGGGGAGCCCTCGGGGAAGTCAGA gave an ETS1 binding intensity of 558.
As for TGCAATTTCCTGTCTTGTCCCAATATTTCCTGTTAA, the ETS1 binding intensity came out at 29000.
With TGTGATTTTCCATCCTGCCATTTCCTGGCACCCAGA the figure was 4620; with TGGAAATTACTTCCGTTAGTTGCTTCCTTATCTTTA, 19600.
With GAGCGAACCGGGAAACGGCACCGGAAGCCCGGAGGT the figure was 5900.
Then ATAGACAGGATGTGACTTCATCAAAGGAAATGCTTC, with 9400.
Turning to CCCAGCTAAAGGAAGTCTGGCACTTCCTCTCCTCAA, the ETS1 binding intensity is 2990.
CAACGCGGGCTTCCTGACTCCACATCCTGCTCGTCC: the ETS1 binding intensity worked out at 5700.
Turning to CGGCTTCTCCGGAAACGGCTTTTTCCGGTGACACCC, the ETS1 binding intensity came to 11100.
TGGTTTCCTCTTTGGGACTACGTCTTCAGGATGGCA: the ETS1 binding intensity was determined as 6600.
Then GCCTTTGCAAACAGGAAACAGGAAACACACCTACAA, with 6950; and AAGGCGGAAACACGCACCATGGTGACTTTCCGGCCT, with 2440.
With GCTGAAGGAAGGGGGCGGAGGCCCCCGGAAAAGGGC the figure was 190; with TTGCTACACCGGAAAACCTCCGTTTCCTATTCCAGG, 4980.
ATGTTTCCTTGTTCAGAGTATTTATCACATCCTGTA yielded an ETS1 binding intensity of 3380.
Consider TGCTGCTTCCTGGCTCCTGGGGCCCTCGGAAGTCTC, for which the ETS1 binding intensity was determined as 10000.
With ACAAGCGAGGAAGCCAGGGTTCAAATCCAGGAAGTC the figure was 229; with TGGCCTAATACGGAACTCCATTTCCCGGCGTGCCTC, 320.
With TGTGGTTATAACTTCCTGTGCTTCCTGTCACTGCAC the figure was 25300.
As to CGTCACTTCCGGCGCCGCGTGAGGCCTTCCGGTGCC, the ETS1 binding intensity came out at 73900.
In turn, TTACGGAGTCGCCGGAAGCGGAAGTCGCTGAGGGGT returned an ETS1 binding intensity of 8600.
Then GGCAAGGAGTCTTCCTGGAGCCGGAAACAGCAAAGA, with 4080; and CTGTAGGAAATGATGCTCCCAGCCCAGCTTCCTCAC, with 296; and AGTAATTTCCTGAAATAAAGCGTGGGAGGAAGTCAT, with 8440.
In turn, CGGGGAGCCAGGAAATATCTCCGGAATCTCACAATG displayed an ETS1 binding intensity of 885.
GGACCTTCCTGTCCAGCTTCTCATACAGGAACTCCT returned an ETS1 binding intensity of 14300.
Then TGGCAGGAAGCCTGAGGCATTATTCAGCTTCCTTAG, with 388.
Regarding TCCAGCTCCATTTCCTCCTCCCTTCCTGCCTTTAGT, the ETS1 binding intensity amounted to 4650.
GACTATTTACGGAAGTGCAGGCAGGATGAAAGGACT registered an ETS1 binding intensity of 2050.
Turning to TCCAACAGGAAGTGAGAGCAGCTCCTTCCTGCTGCA, the ETS1 binding intensity is 16900.
Then GATGTACACATCCTCCAAATGGCATCCGGCCTAATG, with 7710.
Then AGAAACCACATCCTCCTACAGGCATCCTGCTGACAT, with 6590; and CGGGGCTCCCGGAAGCCGCCCCTTCCGCCAGCTTGC, with 4520.
Then ACCCAGCTTCCTGTCCTCCTGGAGACTTCCTGCCTC, with 31400.
Take GCATAAAGGAAATAGGAATGGTAACAGGAAATTGAA: the ETS1 binding intensity is 3580.
Then CAAGGCAGGAAGTCCACAAGGCCAACGGAAGGTCCC, with 8440; and CTGCCAATCACTTCCTGGCTACATCCGGAGTGACAC, with 15900.
Take TCTCGCACCGGATTCGGCCCCCACTTCCGAGCCCTG: the ETS1 binding intensity was 492.
TGTGTGGCAGCGCTTCCGCAGGAAGTCAACAGAGCA: the ETS1 binding intensity was 5310.
With GAACAGCCCAGGATGTTTCGGCTTCCGTGCTGCTGA the figure was 928; with CGGCAGGCGGAAGCCAGACCCGGCGGAACTACCGTG, 2020; with CTGCAGGAAGAGCCGCCCTTGGACGGTTTCCTGGAG, 597.
With GGCTTCAGGATGCATTGACAATTAAAGGAAGTCAGA the figure was 275.
Then CGTGGCTTCCGAGGAGAGGGCAAGAACGGAAGCGAG, with 827; and TGTGATACTTCCTGTCCTCGTCTGTTTCCTCTGACC, with 44100; and CAGTGGTGACATCCGAGTGTGCTTCCTCAGTGCCAC, with 1100.
The sequence ACCTAGCGGAAGACCCAGAGCCCCAGGAAGCCGCCT had an ETS1 binding intensity of 396.
Regarding AGACTTCCGTTCTGGCTCTCACTCTAGTTTCCTGGT, the ETS1 binding intensity was determined as 67500.
With AAGGAGACCGGAAGAAGGTCTGGGGAAGTTATTTGG the figure was 14600.
In turn, AGGAGGAATGGCAGGAAGAGGAAGTGAAACCGACAA gave an ETS1 binding intensity of 1690.
With GCTCCCGGGCAGGAAGTAGTGTTCCGGGTGGGGTAG the figure was 13200.
The sequence CGACACCGGAAATGTGGCGCCCGCGCTTCCGCCTGC displayed an ETS1 binding intensity of 31500.
In the case of GGCGATCCGGCAAGGGAGGCTGGCCGCCGGATGGGG, the ETS1 binding intensity was 177.
The sequence AGGAGGCATTTCCTGATGCCTCCTTCCGGCAACCTT yielded an ETS1 binding intensity of 11800.
In the case of GAAAGGAAGCAGCGCTCGGCCGCCTGTGGGATGTGG, the ETS1 binding intensity was 258.
Then TCAATTTCTCATTTCCCTGGAGGAAGCCCATAAAGT, with 217; and AAGCAGGAAACCTCCCCTTTATGTGGCAGGAAGCTG, with 512; and TGTGAGCAGGAAGCGTTTACATTTAGGAAATGCTTT, with 1400.
With TTGCCGGAAGTCGTGGCGCGCGCACAGGGGATGTGT the figure was 17800; with CTTTAGTTTCATTTCCTCCCAGGATGTACTGCTCTT, 5310.
